# The campaign covered roughly 310,000 compounds. About 2,200 (0.71%) showed an effect of 50% or more. Effects have a minus sign here. Some of the results follow.
# Biological target: human ether-à-go-go-related gene (hERG) potassium channel (human, UniProt Q12809)
# Assay: primary screen, population patch clamp on CHO cells stably expressing hERG
# Chain of human ether-à-go-go-related gene (hERG) potassium channel (Q12809 whole entry, looked up): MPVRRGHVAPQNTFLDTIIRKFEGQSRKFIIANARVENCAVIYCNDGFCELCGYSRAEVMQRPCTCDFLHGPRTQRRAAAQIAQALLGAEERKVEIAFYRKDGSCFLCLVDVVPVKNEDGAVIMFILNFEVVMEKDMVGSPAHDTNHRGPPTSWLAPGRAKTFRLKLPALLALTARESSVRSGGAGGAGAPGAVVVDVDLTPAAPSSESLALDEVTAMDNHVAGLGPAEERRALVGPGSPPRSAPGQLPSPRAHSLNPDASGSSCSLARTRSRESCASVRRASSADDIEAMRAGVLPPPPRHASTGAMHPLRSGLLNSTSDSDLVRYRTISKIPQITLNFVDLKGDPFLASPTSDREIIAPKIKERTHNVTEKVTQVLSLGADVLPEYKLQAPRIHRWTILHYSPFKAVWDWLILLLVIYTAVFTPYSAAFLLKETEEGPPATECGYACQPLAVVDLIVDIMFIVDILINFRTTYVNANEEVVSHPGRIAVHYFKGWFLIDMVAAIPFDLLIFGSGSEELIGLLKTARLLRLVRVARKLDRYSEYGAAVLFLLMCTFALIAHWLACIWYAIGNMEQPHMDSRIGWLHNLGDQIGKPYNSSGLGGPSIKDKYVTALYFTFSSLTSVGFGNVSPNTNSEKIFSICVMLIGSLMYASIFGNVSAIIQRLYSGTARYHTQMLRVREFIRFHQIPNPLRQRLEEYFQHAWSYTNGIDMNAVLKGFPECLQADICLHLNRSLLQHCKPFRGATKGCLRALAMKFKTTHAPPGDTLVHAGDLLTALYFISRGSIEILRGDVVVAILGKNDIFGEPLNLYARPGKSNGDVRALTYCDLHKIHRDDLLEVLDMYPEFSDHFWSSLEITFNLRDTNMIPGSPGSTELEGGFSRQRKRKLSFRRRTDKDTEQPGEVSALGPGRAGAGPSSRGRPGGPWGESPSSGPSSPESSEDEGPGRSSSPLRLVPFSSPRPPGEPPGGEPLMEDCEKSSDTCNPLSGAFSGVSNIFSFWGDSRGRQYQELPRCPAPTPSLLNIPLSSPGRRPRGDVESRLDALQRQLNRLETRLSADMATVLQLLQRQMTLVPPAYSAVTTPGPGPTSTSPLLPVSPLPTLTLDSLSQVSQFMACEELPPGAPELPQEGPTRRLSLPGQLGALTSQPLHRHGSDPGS
row,SMILES,"hERG current change (%, negative = inhibition) at 1uM [%]"
1,CC(=O)Nc1cc(C(=O)N2CCC3(CC2)OCCO3)ccc1Sc1ccc(F)cc1,2.03
2,COc1ccccc1NS(=O)(=O)c1ccc(C)c(NS(=O)(=O)c2cc(C(=O)O)cc(C)c2C)c1,9.86
3,CCOC(=O)Nc1ccc2c(c1)nc(CN1CCCCC1)n2C,1.41
4,Cc1onc(-c2c(F)cccc2Cl)c1C(=O)N1CCCc2ccccc21,0.137
5,COc1ccc(NC(=O)c2cccnc2)cc1,11.2
6,CC(=O)N1CCc2cc(S(=O)(=O)NC(CC(C)C)C(=O)Nc3cc(C(=O)O)ccc3C)ccc21 (stereo not shown),3.73
7,O=C(OCC(=O)N1CCN(C(=O)c2ccco2)CC1)c1cc(-c2ccc(F)cc2)nc2ccccc12,-13.3
8,CCn1c(SCC(=O)Nc2nc(C)cs2)nnc1C(C)NC(=O)c1ccccc1 (stereo not shown),16.2
9,Cc1ccc2c(CN3CCOCC3)cc(=O)oc2c1C,0.103
10,O=C(/C=C/c1c(F)cccc1Cl)NCc1ccc2c(c1)OCO2,6.82
11,Cc1ccc2nc(CCc3ccc(N)cc3)[nH]c2c1.Cl,13.3
12,COCC(C)NC(=O)CSc1nc(-c2ccccc2)c(-c2ccccc2)o1 (stereo not shown),7.14
13,O=C(Nc1cccnc1)c1ccccc1O,-0.67
14,COC(=O)C1=C(NC(=O)c2ccc(C)cc2)CCS1,-5.73
15,CC(C)c1ccc(N2C(=O)CC(=O)NC2=O)cc1,16.3
16,CCn1c(C)c(C2=CCN(S(=O)(=O)c3ccc(C)cc3)CC2)c2ccccc21,6.28
17,Cc1cc(C(=O)COC(=O)Cn2c(C(F)(F)F)nc3ccccc32)c(C)n1Cc1ccco1,13.1
18,N#Cc1ccccc1NC(=O)CSc1ccc([N+](=O)[O-])cn1,12.2
19,CC(C(=O)OCC(=O)N(C)C1(C#N)CCCCC1)N1C(=O)c2ccccc2C1=O (stereo not shown),1.62
20,CN(CC(CC(=O)O)c1ccccc1)S(=O)(=O)c1ccc(Br)cc1 (stereo not shown),9.66

row,SMILES,"hERG current change (%, negative = inhibition) at 1uM [%]"
1,CCC1(c2ccccc2)NC(=O)N(CC(=O)Nc2cc(S(=O)(=O)N3CCCCC3)ccc2N(C)C)C1=O (stereo not shown),-0.0238
2,COc1ccc(C(C)=O)cc1CSC(=N)N.Cl,5.8
3,COc1ccc(CC(=O)Nc2c(C(N)=O)oc3ccccc23)cc1,6.82
4,CC1=CC(C)(C)Nc2ccc(OC(=O)c3cccnc3)cc21,12.8
5,COc1ccc2cc(C(=O)Nc3ccc(O)cc3)sc(=O)c2c1OC,3.32
6,O=C(COc1ncnc2c(Cl)cc(Cl)cc12)NC1CCCCCC1,14.1
7,COc1ccc(CCNS(=O)(=O)c2c(C)nc3scc(C)n3c2=O)cc1OC,11.9
8,O=S(=O)(Nc1ncccn1)c1ccc(Cl)cc1,13.2
9,CC1=CC=CN2C1=NC(=O)CC2(C)C(=O)N(CC(=O)NC1CCCC1)c1cc(C)cc(C)c1 (stereo not shown),8.74
10,Cc1ccnc(NC(=O)COc2ccc3c(c2)CCC3)c1,-4.13
11,C=CCSc1nc(N)c(C(=O)Nc2ccccc2)cc1C#N,10.1
12,O=C(NCc1ccccn1)NC12CC3CC(CC(C3)C1)C2,11.9
13,COc1ccc(/C(C)=N/N2CCCCC2)c(O)c1,11.8
14,Cc1c2n(c3ccccc13)CC/C2=N\O,-3.66
15,COC(=O)C(O)(CC(=O)Nc1cccc(SC)c1)C(F)(F)F (stereo not shown),20.2
16,Nc1ccc(N2C(=O)c3ccccc3C2=O)c(Cl)c1,18
17,O=C(NNC(=O)C1CCCN(c2ncccn2)C1)c1ccncc1 (stereo not shown),4.84
18,CNC(=O)Cc1csc2ccc(C)cc12,7.66
19,CCc1ccc(CCC(=O)Nc2ccc(C)c(C)c2)o1,10.2
20,Oc1ccc(N=Nc2nccs2)c(O)c1,18.5

row,SMILES,"hERG current change (%, negative = inhibition) at 1uM [%]"
1,Nc1cccc(-c2nc3cc(S(=O)(=O)c4ccc5oc(-c6cccc(N)c6)nc5c4)ccc3o2)c1,7.82
2,O=C(CCn1c(=O)sc2ccccc21)NCc1cccs1,7.82
3,COc1cccc(N2CCN(C(=O)c3ccc(Cl)c(NC4=NC5CS(=O)(=O)CC5S4)c3)CC2)c1 (stereo not shown),13.1
4,O=C(O)CCc1ccc(-c2cccs2)n1NC(=O)c1cccs1,20
5,CCCCOC(=O)C1[C@H]2C(=O)N(Cc3cccs3)C[C@]23C=C[C@H]1O3 (stereo partly shown),0.149
6,CC1(C)CC2C1CCC1(O)CC2(C)CCC1N(O)c1ccc(C(=O)NCCO)cn1 (stereo not shown),11
7,Cc1c(C(C)(C)C)s/c(=N/S(=O)(=O)c2ccccc2)n1C,12.6
8,O=C(CCCC(=O)OCC(Cl)=C(Cl)Cl)Nc1cccc(F)c1,0.376
9,CN(CCCC(=O)NCc1ccco1)S(=O)(=O)c1ccccc1,3.19
10,CN(CCO)c1nc(N)c2c(N)nc3c(c2c1C#N)CC(=O)N3C1CCCC1,-2.55
11,O=C(CSc1nnc(NC(=O)C2CC2)s1)Nc1ccccc1,11.4
12,COC(=O)c1ccc(OCc2nc(N)nc(N3CCOCC3)n2)cc1,10.2
13,CN1CCN(NC(=O)/C=C/c2ccc(C(C)(C)C)cc2)CC1,7.12
14,COc1ccc(CCNC(=S)N2CCC(C(N)=O)CC2)cc1,9.77
15,c1nc(N2CCC3(CC2)OCCO3)c2c3c(sc2n1)CCCC3,3.39
16,COc1ccc(CCN/C=C2/CC(=O)NC2=O)cc1OC,12.8
17,COc1ccccc1C1/C(=C(/O)c2ccccc2)C(=O)C(=O)N1CCO (stereo not shown),9.58
18,NS(=O)(=O)c1cccc(NS(=O)(=O)c2ccc(/C=C/C(=O)O)cc2)c1,15.9
